Assay results from PubChem BioAssay AID1159614 (National Center for Advancing Translational Sciences (NCATS), 2016).
The whole screen tested about 45,000 compounds, of which about 65 (0.1%) were called active. The call rests on the fitted dose curve; in most records, active means well fitted activation curve with a large enough effect; inconclusive means small, poorly fitted or top-dose-only effect; inactive means no such curve, though single readings can be large or run the other way. This is one part of the list.

molecular target: Galactocerebrosidase (Homo sapiens) (UniProt P54803); experiment: A Novel Cell-Based Assay to Identify Small Molecules for B -Galactocerebrosidase; details: 145M-Twi-hGALC-G270D cells (Twitcher mouse brain line with human GALC G270D), HMU-beta-Gal fluorescence, 48 h; series mostly up to 57.5 µM; activation: at the top concentration; further: 0% is about no effect; nearly all actives have a fitted effect of over 65% in size
Outline: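 Brain-derived Twitcher mouse 145M-Twi cells stably expressing human GALC-G270D or wild-type GALC, treated live, then residual GALC activity read by fluorescence of HMU-b-Gal substrate (0.1 mM final) in citrate-phosphate buffer pH 5.2 with sodium taurocholate. Signal increase indicates enhancement.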

Chain of UniProt P54803 (P54803 whole entry, looked up): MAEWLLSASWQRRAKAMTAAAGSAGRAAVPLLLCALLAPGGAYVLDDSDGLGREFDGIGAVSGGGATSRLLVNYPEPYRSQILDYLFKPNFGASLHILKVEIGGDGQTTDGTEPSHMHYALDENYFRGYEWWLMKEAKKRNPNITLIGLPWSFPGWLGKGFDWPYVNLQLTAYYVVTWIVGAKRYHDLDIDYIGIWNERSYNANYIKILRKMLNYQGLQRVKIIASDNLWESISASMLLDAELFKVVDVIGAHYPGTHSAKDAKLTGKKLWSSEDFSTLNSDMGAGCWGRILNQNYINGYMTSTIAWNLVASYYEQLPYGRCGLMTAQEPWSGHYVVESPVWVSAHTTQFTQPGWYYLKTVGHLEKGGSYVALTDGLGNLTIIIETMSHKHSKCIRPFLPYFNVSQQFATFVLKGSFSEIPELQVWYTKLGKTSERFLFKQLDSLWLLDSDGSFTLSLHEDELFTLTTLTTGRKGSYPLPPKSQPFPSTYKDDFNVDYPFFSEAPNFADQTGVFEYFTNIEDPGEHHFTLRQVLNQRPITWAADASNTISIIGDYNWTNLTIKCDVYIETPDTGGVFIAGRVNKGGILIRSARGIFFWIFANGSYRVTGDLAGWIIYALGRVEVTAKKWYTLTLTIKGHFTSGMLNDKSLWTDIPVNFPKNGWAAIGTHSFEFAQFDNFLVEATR

activation, inactive:
CCOC(=O)c1ccc(NC(=O)CCC(=O)N2CCSc3ccccc32)cc1 5.83%, Cc1ccc(S(=O)(=O)n2nc(-c3ccco3)nc2NCc2ccc(N(C)C)cc2)cc1 12.4%, Cc1nc2c(-c3ccccc3)c(C)nn2c(C)c1CCC(=O)NCc1ccccc1 -50.8%, CCn1cc2nc(SCc3cccc(C)c3)n(CCc3ccccc3)c(=O)c2n1 -17.6%, COc1cccc(C(=O)COC(=O)c2cc(-c3cccs3)nc3ccccc23)c1 -6.28%, Cc1cc(NS(=O)(=O)c2cn(C)c(C)n2)ccc1Br -26.4%, COc1ccc(C(=O)NCc2nc(-c3cccc(C)c3)no2)cc1OC -21.9%, Cc1nc(-c2ccc(S(=O)(=O)NCc3ccc(F)cc3)cc2)co1 -14.5%, Cc1ccc(C)c(CN2C(=O)c3ccccc3S(=O)(=O)c3ccc(C(=O)NCCc4ccc(Cl)cc4)cc32)c1 7.77%, Cc1ccc(CCNc2nc3ccccc3c3nc(-c4cccnc4)nn23)cc1 1.7%, CCc1ccccc1NC(=O)C1CCN(c2nc3ccccc3[nH]2)CC1 -7.36%, Cc1ccccc1OCC(=O)Nc1nnc(SCc2cc(=O)n3cc(Cl)ccc3n2)s1 -3.67%, COc1cccc(CNC(=O)CCc2c(C)nc3c4c(C)cc(C)nc4nn3c2C)c1 -5.63%, COC(=O)c1ccccc1N(C)S(=O)(=O)c1cc2c3c(c1)CC(=O)N3CCC2 -15.1%, CCc1ccc(NC(=O)Cn2c(=O)nc(-c3ccccc3F)c3cc(Cl)ccc32)cc1 -16.6%, Cc1cc(C)nc(-n2nc(C)c3c2N(Cc2ccccc2C)C(=O)CC3c2ccc(Cl)cc2)n1 (centres undefined) -17.9%, O=C(Nc1ccc(Oc2ccccc2)cc1)c1ccc(F)c(S(=O)(=O)N2CCN(c3ccccc3F)CC2)c1 -4.12%, CCOC(=O)c1c(C)[nH]c(C)c1S(=O)(=O)NCC(=O)NCc1cccc(Br)c1 -17.2%, CC(C)CCSc1nnc2n(-c3ccccc3)c(=O)c3c4c(sc3n12)CC(C)CC4 (centres undefined) -3.98%, O=C(Cn1cc(S(=O)(=O)Cc2cccc(Cl)c2)c2ccccc21)NCc1ccccc1Cl 1.43%, Cc1ccc2cc3cc(C(=O)N4CCN(c5ccccc5)CC4)sc3nc2c1 -8.36%, COc1cccc(NC(=O)/C(C#N)=C/c2ccc(-c3ccc(C)cc3)o2)c1 -5.24%, O=C(Cn1ccc2cc(S(=O)(=O)N3CCCCCC3)ccc21)NCc1cccc(Cl)c1 -10.5%, Cc1coc2c(C)c3oc(=O)c(CCC(=O)N4CCCCC4)c(C)c3cc12 -2.03%, COCCn1c(C)cc(O)c(C(c2ccccc2Cl)N2CCCCC2)c1=O (centres undefined) -5.99%, CCCN1CCN(CCCNC(=O)c2cc3c(s2)-c2ccccc2OC3)CC1 -3.9%, C[C@]12CC[C@@H]3c4ccc(O)cc4CC[C@H]3[C@@H]1CC[C@@H]2OC(=O)CCC1CCCC1 -15.1%, CN(C)c1ccc(CNC(=O)CCCN2C(=O)CCn3nc(-c4cn(C)c5ccccc45)cc32)cc1 -1.96%, COc1ccc(-c2nsc(NC(=O)c3oc4ccccc4c3C)n2)cc1 -3.63%, CCn1cc(C(=O)N2CCN(c3cccc(C)c3)C(C)C2)c(=O)c2cc(S(=O)(=O)N3CCOCC3)ccc21 (centres undefined) -10.9%, CCCNc1ncnc2c1c(-c1ccccc1)cn2-c1ccccc1 -0.221%, CCc1cccc(-n2nnc(S(=O)(=O)c3ccc(OC)cc3)c2C)c1 -47.1%, COCCn1c(C)cc(O)c(C(c2ccccc2F)N2CCN(c3ccccc3)CC2)c1=O (centres undefined) -10.7%, COc1ccccc1CCNC(=O)C(=O)NCC(c1cccnc1)N1CCN(c2ccccc2)CC1 (centres undefined) -2.03%, COc1ccc(C2=NN(CCC(=O)NCCc3ccccc3)C(=O)CC2)cc1 -10.5%, COc1ccc(NC(=O)Cn2nnc(-c3nc(-c4ccncc4)no3)c2N)cc1OC -11%, Cc1cccc(C)c1NC(=O)C1CCCN1S(=O)(=O)c1cccc2nsnc12 (centres undefined) -18.2%, Cc1ccc(Cn2cc(CCC(=O)NCC(C)c3ccccc3)c3ccccc32)cc1 (centres undefined) -41.4%, Cc1c(NS(=O)(=O)c2ccc(Cl)cc2)c(=O)n(-c2ccccc2)n1C -11.7%, Cc1nc2c(c(C)c1CCC(=O)Nc1ccc(F)cc1)c(=O)n(C)c(=O)n2C -16.1%, CCCN1C(=O)c2oc3cc(C)cc(C)c3c(=O)c2C1c1ccc(F)cc1 (centres undefined) 6.17%, COc1ccc(-c2cc(C(F)(F)F)nc(SCC(=O)Nc3ccc(O)cc3)n2)cc1OC -12.4%, Cc1ccc(C)c(NC(=O)c2cnc3sc(N4CCOCC4)nn3c2=O)c1 5.23%, CCN(CC)CCCNC(=O)CCc1c(C)nc2c(c1C)c(=O)n(C)c(=O)n2C -6.02%, CCOc1ccc(CNC(=O)c2ccc(NC(=O)N3CCSc4ncccc43)cc2)cc1 -7.46%, Cc1ccc(NC(=O)c2cccc(NC(=O)N3CCSc4ncccc43)c2)cc1F -16.7%, COc1ccc(-c2nc3cc(NC(=O)COc4ccc(C)c(C)c4)ccc3o2)cc1 -6%, Cc1cc(=O)c2cc(C(=O)Nc3cccc(C)c3C)ccc2[nH]1 -13%, CCCCOCCOC(=O)c1cccnc1 -11.9%, O=C(CCc1ccccc1)NCc1ccc2c(c1)CCN2C(=O)c1ccccc1 -0.532%, COc1ccccc1-c1nnc(C2CCN(S(=O)(=O)c3ccc(CC(C)C)cc3)CC2)o1 -0.241%, Nc1c(C(=O)Nc2ccc(C(F)(F)F)cc2)sc2nc(-c3cccs3)ccc12 -11.3%, COc1ccc(-n2c(SCC(=O)c3ccc(Cl)cc3)nc3c([nH]c4ccccc43)c2=O)cc1 -16.7%, COc1cccc(NC(=O)Cn2c(=O)n(-c3ccccc3)c(=O)c3ccc(C(=O)NCc4ccc5c(c4)OCO5)cc32)c1 -14.1%, COc1ccccc1N1CCN(c2ccc(=O)n(CC(=O)Nc3cc(F)ccc3C)n2)CC1 -6.46%, Cn1cc(C(=O)O)c(=O)c2cc(S(=O)(=O)N3CCOCC3)ccc21 -50.4%, COc1ccccc1NC(=O)c1oc2ccccc2c1NC(=O)Cc1cccs1 -9.65%, CC(=O)N1CCc2c(sc3c2c(=O)n(CCc2ccccc2)c(=O)n3CC(=O)Nc2ccccc2F)C1 -24%, CCC(Cc1c(I)cc(I)c(N)c1I)C(=O)O (centres undefined) -20.6%, Cc1ccc(N(CC(O)Cn2c3ccccc3c3ccccc32)S(=O)(=O)c2ccc(F)cc2)cc1 (centres undefined) -12.2%, Cc1ccccc1Nc1sc(C(=O)c2ccccc2)c(N)c1S(C)(=O)=O -11.6%, COc1ccc(CCNc2ncnc3onc(-c4ccc(Cl)cc4)c23)c(OC)c1 -18.9%, CCc1ccc(NC(=O)CN2C(=O)C3CCCN3c3ccc(S(=O)(=O)N(CC)CC)cc32)cc1 (centres undefined) -11.2%, Cn1cc(S(=O)(=O)N2CCCCCC2)cc1C(=O)N1CCN(c2ccccc2F)CC1 -15%, Cc1ccc(-c2nc3cc(NC(=O)Cc4ccc(Cl)cc4)ccc3o2)cc1 -2.16%, CCOC(=O)c1ccc(N2CC3=C(C2=O)C(c2ccc(OC)cc2)NC(=O)N3C)cc1 (centres undefined) -13.4%, COc1ccc2c(Sc3ccc(C)cc3)c(C(=O)NCC(C)c3ccccc3)[nH]c2c1 (centres undefined) -16.1%, CCc1ccc(NC(=O)Cn2c(=O)n(CCCC(=O)NCc3ccccc3Cl)c(=O)c3ccccc32)cc1 -5.02%, Cc1cc(NC(=O)CSc2nc(-c3cccc(F)c3)nc3c2c(=O)n(C)c(=O)n3C)no1 -11.9%, COc1ccccc1NC(=O)Cn1cnc2ccc(S(=O)(=O)N3CCC(C)CC3)cc2c1=O -15.3%, COc1ccc2oc(=O)c(C(=O)NCCc3c(C)[nH]c4ccc(C)cc34)cc2c1 -12.1%, Cc1ccc(CNC(=O)c2cc3c(=O)oc4ccc(C)cc4c3s2)cc1 -26.3%, COc1ccccc1-c1nc2c(c(SCc3cc(C)ccc3C)n1)Cc1c(CO)cnc(C)c1O2 -6.77%, COc1ccc(N(CC(=O)N2CCN(c3ccccc3F)CC2)S(=O)(=O)c2c(C)noc2C)cc1 -4%, CCCNC(=O)Cn1nc(-c2ccc(C)c(C)c2)c2cnc3ccc(OC)cc3c21 -16.3%, CN1CCc2cccc3c2[C@H]1Cc1ccc(O)c(O)c1-3 -4.98%, O=C(Nc1noc2ccccc12)c1cccc(Cl)c1Cl -9.6%, COc1ccc(CNCCC(c2ccc(C)cc2)c2ccco2)cc1 (centres undefined) -18.1%, Cc1ccccc1NC(=O)C(Cc1ccccc1)N1Cc2ccccc2C1=O (centres undefined) -6.75%, Cc1cccc(OCC(=O)Nc2ccc(S(=O)(=O)Nc3onc(C)c3C)cc2)c1C 0.832%, Cc1nn(-c2ccccc2)c(-n2cccc2)c1C(=O)N1CCN(c2ccccc2)CC1 -3.71%, CCOC(=O)c1ccc(OC(=O)c2cn(-c3ccc(C)cc3)c(=O)c3ccccc23)cc1 -8.21%, Cc1cc(OCC(=O)N(Cc2ccc(N(C)C)cc2)Cc2ccco2)cc(C)c1Cl -6.79%, COc1ccc(NC(=O)Cn2c(=O)n(Cc3ccco3)c(=O)c3sc4ccccc4c32)c(OC)c1 -15.1%, CN(C)c1ccc(O)c2c1C[C@H]1C[C@H]3[C@H](N(C)C)C(=O)C(C(N)=O)=C(O)[C@@]3(O)C(=O)C1=C2O -9.44%, Cc1ccc(NC(=O)C2CCCN(C(=O)c3cnn(-c4ccccc4)c3-n3cccc3)C2)cc1 (centres undefined) -0.939%, COCCCN1C(=O)c2[nH]nc(-c3cc(C)ccc3O)c2C1c1ccc(F)cc1 (centres undefined) -15.4%, COc1ccc(CNC(=O)c2cc3sccc3n2Cc2ccc(F)cc2)cc1 -14.2%, Cc1c(Cl)cccc1NC(=O)c1cc(S(=O)(=O)N2CCCCC2)cn1C -24.4%, CCc1nnc(NC(=O)CSc2nc3c([nH]c4ccccc43)c(=O)n2-c2ccc(F)cc2)s1 -7.19%, Cc1ccc2oc(=O)c3cc(C(=O)Nc4ccc(C)c(F)c4)sc3c2c1 -13.7%, COc1ccccc1/C=C/c1onc(C)c1S(=O)(=O)N1CCC(C(=O)N2CCC(C)CC2)CC1 -13.4%, COC(=O)c1sccc1S(=O)(=O)N(CC(=O)Nc1ccccc1C)c1ccc(Cl)cc1 -37.2%, Cc1ccccc1NC(=O)CSc1nc2ccc(NC(=O)CCc3ccccc3)cc2s1 -20.6%
